{"source": "PubChem BioAssay AID1346428", "about": "(National Center for Advancing Translational Sciences (NCATS), 2018)", "note": "About 1,200 (2.5%) of roughly 48,000 compounds were called active. Roughly 2% stayed inconclusive and do not appear here.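 Rule for the calls: active = activation of at least 60% and not above a set upper limit (about 1 call in 100 departs from these limits); inconclusive = activation of 40% to 60%, or above that upper limit; inactive = activation under 40%.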 The list shows a part of the results.", "data": [{"biological_target": "Probable G-protein coupled receptor 32 (Homo sapiens) (UniProt O75388)", "sequence (O75388 whole entry, looked up)": "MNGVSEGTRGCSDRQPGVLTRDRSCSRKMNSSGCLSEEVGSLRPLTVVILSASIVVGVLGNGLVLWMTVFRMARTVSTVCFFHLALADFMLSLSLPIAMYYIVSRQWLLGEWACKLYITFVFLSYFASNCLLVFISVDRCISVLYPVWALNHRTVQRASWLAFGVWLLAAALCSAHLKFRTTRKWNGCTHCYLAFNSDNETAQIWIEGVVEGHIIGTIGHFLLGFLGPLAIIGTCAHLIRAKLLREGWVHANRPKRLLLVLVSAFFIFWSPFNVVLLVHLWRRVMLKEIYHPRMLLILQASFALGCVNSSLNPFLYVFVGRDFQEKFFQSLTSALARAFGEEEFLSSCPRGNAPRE", "assay": "qHTS for Agonists of Human Resolvin D1 Receptor DRV1; note: 0% is about no effect", "conditions": "CHO-K1 GPR32 beta-arrestin PathHunter luminescence, 90 min; at 76.9 µM; hits give high values; zero percent set by DMSO-only wells", "method_in_brief": "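Beta-arrestin recruitment read-out: luminescence from complemented beta-Gal in CHO-K1 GPR32 PathHunter cells, measured 1 h after detection reagent at ambient temperature following 90 min compound exposure at 37 °C; DMSO served as basal (EC0) control.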", "values": [{"smiles": "COCCNC(=O)CCCN1C(=O)c2ccccc2Sc2ncccc21", "activation": "inactive: -7.54%"}, {"smiles": "O=S(=O)(c1cccc(F)c1)N1CCC(c2nc3ccccc3s2)CC1", "activation": "inactive: 8.17%"}, {"smiles": "COc1ccc(-c2nc(CSCC(=O)N3CCN(c4ccc(OC)cc4)CC3)c(C)o2)cc1", "activation": "inactive: -7.35%"}, {"smiles": "Cc1ccc(NC(=O)c2oc3ccc(S(=O)(=O)N(C)C4CCCCC4)cc3c2C)cc1Cl", "activation": "inactive: -7.66%"}, {"smiles": "COc1cccc2c1cc1c(=O)n(CC(=O)NC3CC3)nc(C)n12", "activation": "inactive: -10.5%"}, {"smiles": "CC(=O)N1CCc2cc(S(=O)(=O)NC(CC(C)C)C(=O)NCc3ccccc3)ccc21", "note": "(centres undefined)", "activation": "inactive: 16.5%"}, {"smiles": "O=c1c(=O)n(-c2cccc(Cl)c2)ccn1Cc1cccc(F)c1", "activation": "inactive: -14.3%"}, {"smiles": "COc1cccc(-c2nc(CSCC(=O)NCCc3ccc(Cl)cc3)c(C)o2)c1", "activation": "inactive: -4.38%"}, {"smiles": "Cc1nnc(SCC(=O)Nc2ccc(Br)cc2)[nH]c1=O", "activation": "inactive: 3.99%"}, {"smiles": "Cc1ccc(-c2nc(N3CCN(c4ccccc4Cl)CC3)c3ccccc3n2)cc1", "activation": "inactive: -9.61%"}, {"smiles": "COc1ccc(C)cc1Nc1nc(-c2cccc(Cl)c2)c2c(n1)-c1ccccc1OC2", "activation": "inactive: 4.89%"}, {"smiles": "COc1cc(-c2nc(Cn3nnc(C(=O)Nc4cc(C)cc(C)c4)c3C)c(C)o2)cc(OC)c1OC", "activation": "inactive: -5.62%"}, {"smiles": "CCCCC(CC)CNC(=O)CCCn1c(=O)[nH]c2ccsc2c1=O", "note": "(centres undefined)", "activation": "inactive: 26.7%"}, {"smiles": "CCOC(=O)c1cc(-c2ccccc2)n(CC(=O)N(C)c2ccc(OC)cc2)c1C", "activation": "inactive: -27.8%"}, {"smiles": "CCOc1ccc(NC(=O)C(NC(=O)C2CCC(C)CC2)C(C)C)cc1", "note": "(centres undefined)", "activation": "inactive: -6.59%"}, {"smiles": "Cc1ccc(Nc2nc(C)cc(C)n2)c(C(=O)O)c1", "activation": "inactive: 10.1%"}, {"smiles": "COc1ccc(NC(=O)c2sc3nc(C)c(C(=O)Nc4ccc(C)cc4C)c(-c4ccc(C)o4)c3c2N)cc1", "activation": "inactive: -12.6%"}, {"smiles": "CCc1ccc(NC(=O)CN2C(=O)C3(SCC(=O)N3c3ccccc3)c3ccccc32)cc1", "note": "(centres undefined)", "activation": "inactive: -7.83%"}, {"smiles": "CC1(C)CC(=O)c2cc(-c3nc(-c4ccc(Cl)cc4)cs3)c(=O)n(-c3ccc(Cl)cc3)c2C1", "activation": "inactive: 25.3%"}, {"smiles": "Cc1ccc(Cl)cc1NC(=O)CSC1=Nc2ccccc2C2=NC(Cc3ccccc3)C(=O)N12", "note": "(centres undefined)", "activation": "inactive: -19%"}, {"smiles": "COc1ccc(NC(=O)Cn2nc(-c3ccncc3)ccc2=O)cc1Cl", "activation": "inactive: -2.3%"}, {"smiles": "CC(C)CCNC(=O)c1ccc2c(c1)NC(=O)C(CS(=O)(=O)Cc1cccc(Br)c1)N2", "note": "(centres undefined)", "activation": "inactive: -23.7%"}, {"smiles": "Cc1ccc(NC(=O)/C(C#N)=C/c2ccc(C)o2)cc1", "activation": "inactive: 9.71%"}, {"smiles": "C#CC(C)(CC)NC(=O)c1cnn2c(C(F)F)cc(-c3ccccc3OC)nc12", "note": "(centres undefined)", "activation": "inactive: 7.36%"}, {"smiles": "Cc1cc(C)n(CCc2nc3c4ccccc4nc(N4CCN(c5ccccc5F)CC4)n3n2)n1", "activation": "inactive: 14.9%"}, {"smiles": "COc1ccc(CCNc2ncnc3c2cnn3-c2cccc(Cl)c2)cc1", "activation": "active: 114%"}, {"smiles": "COc1ccc(OCCCCn2c(C3CC(=O)N(c4cccc(Cl)c4)C3)nc3ccccc32)cc1", "note": "(centres undefined)", "activation": "inactive: 1.25%"}, {"smiles": "COc1ccc(NC(=O)CSc2nc3ccccc3n2CC(=O)N(C)c2ccc(F)cc2)cc1", "activation": "inactive: -4.61%"}, {"smiles": "Cc1ccc(Cn2ccnc2SCC(=O)NCc2ccc(F)cc2)cc1", "activation": "inactive: -5.65%"}, {"smiles": "CCCN1CCN(CCNC(=O)Nc2ccc(OC)c(OC)c2)CC1", "activation": "inactive: -13%"}, {"smiles": "CC(=O)Oc1cccc(O)c1", "activation": "inactive: -23.3%"}, {"smiles": "CCOC(=O)C1CCN(CC(=O)N2CCCc3c2c(=O)oc2ccc(OCc4ccccc4)cc32)CC1", "activation": "inactive: -10.7%"}, {"smiles": "COc1ccc(-c2onc(C)c2C)cc1S(=O)(=O)N(C)Cc1ccco1", "activation": "inactive: -9.87%"}, {"smiles": "CN1C(=O)C2(SCC(=O)N2c2cccc(C(F)(F)F)c2)c2ccccc21", "note": "(centres undefined)", "activation": "inactive: 6.5%"}, {"smiles": "CCOC(=O)C1CCC(CN(Cc2ccc(Cl)cc2)S(=O)(=O)c2ccc(Br)cc2)CC1", "note": "(centres undefined)", "activation": "inactive: -1.49%"}, {"smiles": "CCOc1ccc(NC(=O)c2cn(C)c(=O)c3cc(OC)c(OC)cc23)cc1", "activation": "inactive: 12.3%"}, {"smiles": "COc1ccc(OC)c(NC(=O)Cn2c(=O)n(Cc3ccccc3)c(=O)c3ccccc32)c1", "activation": "inactive: -5.41%"}, {"smiles": "CCn1cc(C(=O)N2CCN(c3cccc(Cl)c3)CC2)c(=O)c2cc(S(=O)(=O)N3CCCCC3)ccc21", "activation": "inactive: -7.63%"}, {"smiles": "COc1cc(OC)cc(C(=O)Nc2ccc3nc(N4CCCCC4)cc(C)c3c2)c1", "activation": "inactive: -25.8%"}, {"smiles": "COc1ccc(C(CNC(=O)c2oc3ccc(C)cc3c2C)N2CCOCC2)cc1", "note": "(centres undefined)", "activation": "inactive: -9.04%"}, {"smiles": "COc1ccc(OC)c(NC(=O)N2CCN(S(=O)(=O)c3ccc4c(ccn4C)c3)CC2)c1", "activation": "inactive: -3.81%"}, {"smiles": "CC(C)Cn1c(=O)c2ccccc2n2c(CCC(=O)N3CCN(c4ccccc4F)CC3)nnc12", "activation": "inactive: -33.3%"}, {"smiles": "CCCn1c(-c2ccc(S(=O)(=O)N3CCOCC3)cc2)csc1=Nc1ccc(OCC)cc1", "activation": "inactive: 13.9%"}, {"smiles": "O=C(NCc1ccccc1Cl)C(=O)NCC(c1cccs1)S(=O)(=O)c1cccs1", "note": "(centres undefined)", "activation": "inactive: -12.4%"}, {"smiles": "CCCSCCCNC(=O)C1CCN(c2nn3cc(-c4ccc(F)cc4)nc3s2)CC1", "activation": "inactive: 2.42%"}, {"smiles": "Cc1ccc2nc(-c3ccc(O)cc3)c(Nc3ccc4c(c3)OCCO4)n2c1", "activation": "inactive: -16.7%"}, {"smiles": "COC(=O)c1ccccc1NC(=O)Cn1c(=O)n(Cc2ccc(C(=O)NCc3ccc4c(c3)OCO4)cc2)c(=O)c2ccccc21", "activation": "inactive: -8.72%"}, {"smiles": "Cc1ccc(C)n1-c1nnc(N2CCCC(C(=O)Nc3ccc(C(C)C)cc3)C2)s1", "note": "(centres undefined)", "activation": "inactive: -0.499%"}, {"smiles": "COc1cccc(C(=O)c2sc3nc(-c4ccccc4)cc(C(F)(F)F)c3c2N)c1", "activation": "inactive: -17%"}, {"smiles": "Cc1ccc(C)c(N2C(=O)N(Cc3cc(=O)n4ccccc4n3)c3ccccc3S2(=O)=O)c1", "activation": "inactive: -7.77%"}, {"smiles": "CCOC(=O)c1c(C)oc2ncnc(Nc3ccc(OCC)cc3)c12", "activation": "inactive: -0.746%"}, {"smiles": "Cc1ccc(CNC(=O)c2ccc3c(c2)nc(C)n3-c2cc(C)cc(C)c2)cc1", "activation": "inactive: -5.6%"}, {"smiles": "O=C(COc1ccccc1F)Nc1ccc(-c2nc3ccccc3s2)cc1", "activation": "inactive: -13.7%"}, {"smiles": "O=C(CN1C(=O)CCc2cc(S(=O)(=O)N3CCOCC3)ccc21)NCc1ccc(F)cc1", "activation": "inactive: 27.7%"}, {"smiles": "CCc1cccc(NC(=O)Nc2csc3c2CCCC3)c1", "activation": "inactive: 24.5%"}, {"smiles": "COc1cc(C)ccc1OCCSc1nc2ccc(NC(=O)c3ccc(F)cc3)cc2s1", "activation": "inactive: -3.18%"}, {"smiles": "CCCCOc1ccc(C(=O)Nc2ccc(-c3nc4ccccc4s3)cc2C)cc1", "activation": "inactive: -30.7%"}, {"smiles": "Cn1ccc2cc(S(=O)(=O)N3CCC(C(=O)NCCc4ccccc4)CC3)ccc21", "activation": "inactive: 10%"}, {"smiles": "N#Cc1ccccc1NC(=O)Cn1cnc2onc(-c3cccc(F)c3)c2c1=O", "activation": "inactive: 1.04%"}, {"smiles": "Cc1ccc(N(CC(=O)NCCc2ccccc2)S(=O)(=O)N(C)C)cc1", "activation": "inactive: -13.5%"}, {"smiles": "COc1cccc(NC(=O)CNC(=O)Cn2c(C)cc3ccccc3c2=O)c1", "activation": "inactive: -4.18%"}, {"smiles": "CCOc1cc(CNc2ccc(O)cc2)ccc1OCc1ccc(Cl)cc1", "activation": "inactive: 8.1%"}, {"smiles": "CN(C)S(=O)(=O)c1ccc(C(=O)N2CC(=O)Nc3ccc(Br)cc3C2c2ccc(F)cc2)cc1", "note": "(centres undefined)", "activation": "inactive: -25.6%"}, {"smiles": "Cc1ccc(CNC(=O)c2ccc(Cn3c(SCc4ccccc4F)nc4cccnc43)cc2)cc1", "activation": "inactive: -23.1%"}, {"smiles": "CC1CCN(C(=O)Cn2c(=O)oc3cc(S(=O)(=O)N4CCCCC4)ccc32)CC1", "activation": "inactive: 29.6%"}, {"smiles": "COc1ccc(CNC(=O)CN(c2ccccc2)S(=O)(=O)N(C)C)cc1", "activation": "inactive: -2.87%"}, {"smiles": "CCOC(=O)c1cc2c(=O)n3ccccc3nc2n(CCCOC)c1=NC(=O)C(C)Oc1ccccc1", "note": "(centres undefined)", "activation": "inactive: -2.96%"}, {"smiles": "Cc1cc(=O)n(Cc2cccc(Cl)c2)c2c1c(C)nn2-c1ccccc1", "activation": "inactive: -12.1%"}, {"smiles": "Cc1cc(C)cc(NC2=CC(c3cccc(F)c3)N(c3cc(C)cc(C)c3)C2=O)c1", "note": "(centres undefined)", "activation": "inactive: 2.35%"}, {"smiles": "CCN(CC)C(=O)c1sc2c(c1C)c(=O)n(-c1ccccc1)c(=O)n2CC(=O)Nc1ccc(C)cc1C", "activation": "inactive: -5.5%"}, {"smiles": "Cc1cccc(-n2c(=O)c3c4c(sc3n3cnnc23)CCCC4)c1", "activation": "inactive: 9.05%"}, {"smiles": "CCN1CCN(c2c(S(=O)(=O)c3ccc(C)c(C)c3)cnc3cc(OC)c(OC)cc23)CC1", "activation": "inactive: -14.9%"}, {"smiles": "CCOc1ccc(CC(=O)NCCc2sc3nc(-c4ccc(OC)cc4)nn3c2C)cc1", "activation": "inactive: -18.1%"}, {"smiles": "CCN(CC)S(=O)(=O)c1nnc(NC(=O)COc2ccc(Cl)cc2)s1", "activation": "inactive: 45.9%"}, {"smiles": "CCCCSc1ncnc2c1c(-c1ccccc1)cn2-c1cccc(F)c1", "activation": "inactive: 2.62%"}, {"smiles": "CCN(CC)CCNC(=O)c1ccc2c(c1)sc1nc(-c3ccc(F)cc3)cn12", "activation": "inactive: -3.59%"}, {"smiles": "CCOC(=O)Cn1cnc2onc(-c3ccc(F)cc3)c2c1=O", "activation": "inactive: -0.513%"}, {"smiles": "COc1ccc(C(CNC(=O)COc2ccc(Cl)c(C)c2)N2CCOCC2)cc1", "note": "(centres undefined)", "activation": "inactive: -14.2%"}, {"smiles": "CC(=O)Nc1cc(NC(C)=O)cc(-c2nc3ccccc3[nH]2)c1", "activation": "inactive: 48.4%"}, {"smiles": "Cc1cc(C)cc(NS(=O)(=O)c2ccc3c(c2)NC(=O)C(C)S3)c1", "note": "(centres undefined)", "activation": "inactive: -11.4%"}, {"smiles": "CCOC(=O)c1c(C)oc2nc(C)nc(Nc3ccc(CC)cc3)c12", "activation": "inactive: -5.84%"}, {"smiles": "CCn1c(C(=O)N2CCC(C(=O)NCCc3ccc(OC)cc3OC)CC2)cc2sccc21", "activation": "inactive: -6.39%"}, {"smiles": "CCOC(=O)C(CC)Sc1ccc2nnc(CCNS(=O)(=O)c3ccc(C)cc3)n2n1", "note": "(centres undefined)", "activation": "inactive: -17%"}, {"smiles": "COc1cccc2c1Oc1ncccc1N(C(=O)Nc1ccc(F)c(Cl)c1)C2", "activation": "inactive: -25.6%"}]}]}
